Measured values taken from patent US9499493B2, “2,4-pyrimidinediamine compounds and their uses” (Rigel Pharmaceuticals, Inc., priority 2002, dated 2016).
Counter-ions that a name gives are not always drawn.

What was measured:
[1] = test system: cultured human mast cells (CHMC); assay: CHMC low cell density IgE activation: tryptase assay; assay type: cell-based; settings: anti-IgE
[2] = test system: cultured human mast cells (CHMC); assay: CHMC low cell density ionomycin activation: tryptase assay; assay type: cell-based
[3] = test system: bone marrow derived mast cells (BMMC); assay: BMMC high cell density IgE activation: hexosaminidase; assay type: cell-based, mouse; settings: anti-IgE, second part of TABLE 1, read-out: BMMC anti-IgE hexos. IC50
[4] = test system: bone marrow derived mast cells (BMMC); assay: BMMC high cell density IgE activation: histamine; assay type: cell-based, mouse; settings: anti-IgE, second part of TABLE 1
[5] = test system: bone marrow derived mast cells (BMMC); assay: BMMC high cell density IgE activation: LTC4; assay type: cell-based, mouse; settings: anti-IgE, second part of TABLE 1
[6] = test system: bone marrow derived mast cells (BMMC); assay: BMMC high cell density IgE activation: TNFalpha; assay type: cell-based, mouse; settings: anti-IgE, second part of TABLE 1, read-out: BMMC anti-IgE TNF-alpha IC50
[7] = test system: bone marrow derived mast cells (BMMC); assay: BMMC high cell density IgE activation: IL-6; assay type: cell-based, mouse; settings: anti-IgE, second part of TABLE 1
Jurkat cells = assay: Jurkat toxicity, Cell Titer Glo assay; assay type: cell-based; settings: 18 hours incubation
B-cell line BJAB = assay: BJAB toxicity, Cell Titer Glo assay; assay type: cell-based; settings: 18 hours incubation
[8] = test system: IgE-induced degranulation of tissue mast cells; assay: Mouse model of passive cutaneous anaphylaxis (PCA); assay type: in vivo; settings: PEG-based formulation (data not shown)
[9] = Sheep model of allergic asthma (Ascaris suum challenge); assay type: in vivo; settings: aqueous suspension
[10] = 45 mg/sheep, pretreatment 60 min

| Structure (SMILES) | IC50 [1] | IC50 [2] | IC50 [3] | IC50 [4] | IC50 [5] | IC50 [6] | IC50 [7] | IC50 (Jurkat cells) | IC50 (B-cell line BJAB) | PCA response after oral administration (in words) [8] | LAR and AHR (in words) ([9]; 45 mg/sheep, 60 minutes prior to allergen challenge) | AHR (% inhibition) [9, 10] | EAR (% inhibition) [9, 10] | LAR (% inhibition) [9, 10] | EAR (in words) [9] |
| --- | --- | --- | --- | --- | --- | --- | --- | --- | --- | --- | --- | --- | --- | --- | --- |
| Cc1cc(Nc2nc(Nc3cccc(OCCN4CCNCC4)c3)ncc2F)cc(Cl)c1O [R945150, N4-(3-Chloro-4-hydroxy-5-methylphenyl)-5-fluoro-N2-[3-[2-(N-piperazino)ethoxy]phenyl]-2,4-pyrimidinediamine Dihydrochloride Salt] | 467 nM | > 10000 nM | > 2000 nM | > 2000 nM | > 10000 nM | 709 nM | 634 nM | > 4330 nM | > 4330 nM |  |  |  |  |  |  |
| CNC(=O)COc1cccc(Nc2ncc(F)c(Nc3ccc4cc[nH]c4c3)n2)c1 [R926745, 5-Fluoro-N4-[(1H)-indol-6-yl]-N2-[3-(N-methylamino)carbonylmethyleneoxyphenyl]-2,4-pyrimidinediamine] | 83 nM | > 10000 nM |  |  |  |  |  | > 10000 nM | > 10000 nM |  |  |  |  |  |  |
| CNC(=O)COc1cccc(Nc2ncc(C(F)(F)F)c(Nc3cccc(O)c3)n2)c1 [R926742, N4-(3-Hydroxyphenyl)-5-trifluoromethyl-N2-[3-(N-methylamino)carbonylmethyleneoxyphenyl]-2,4-pyrimidinediamine] |  |  |  |  |  |  |  | 9000 nM | > 10000 nM | able to inhibit the PCA response | blocked | 94% | −19% | 87% | failed to inhibit |
| O=C(COc1cccc(Nc2ncc(F)c(Nc3ccc4c(c3)OCCO4)n2)c1)NCC(O)CO (stereo not drawn) [R926782, N2-[3-(N-2,3-Dihydroxypropylamino)carbonylmethyleneoxyphenyl]-N4-(3,4-ethylenedioxyphenyl)-5-fluoro-2,4-pyrimidinediamine] | 173 nM | > 10000 nM | < 220 nM | < 220 nM | 1460 nM | 276 nM | < 220 nM | > 4330 nM | > 4330 nM |  |  |  |  |  |  |
